# Source: a collection of fitness landscapes (doi:10.1016/j.celrep.2020.107928)
# In all, about 81,000 sequences were measured (“one-hybrid fitness for binding parS DNA”: median about -0.17, highest 2% from about 0.51 on). Some of the results follow.
# B1: Caulobacter ParB omega fusion; a variant is named by its letters at X, in order, B8GW30 (parent)
# chain: MESVVVGEPGMSEGRRGLGRGLSALLGEVDAAPAQAPGEQLGGSREAPIEILQRNPDQPRRTFREEDLEDLSNSIREKGVLQPILVRPSPDTAGEYQIVAGERAWRAAQRAGLKTVPIMVRELDDLAVLEIGIIENVQRADLNVLEEALSYKVLMEKFERTQENIAQTIGKSXSHVANXMRLLXLPDEVQSYLVSGELTAXHARAIAAAADPVALAKQIIEGGLSVRETEALARKAPNLSAGKSKGGRPPRVKDTDTQALESDLSSVLGLDVSIDHRGSTGTLTITYATLEQLDDLCNRLTRGI
# Variants of: B1
# Experiment: one-hybrid fitness for binding parS DNA (scaled: cognate 1, non-cognate 0); higher = stronger binding
# Details: with parS DNA site
# Method in brief: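 Fitness is the rescaled log change in variant-to-wild-type read ratio, measured by Illumina sequencing of plasmids before and after bacterial one-hybrid selection. The scale puts cognate at 1 and non-cognate at 0. Selection of Caulobacter ParB libraries, four specificity codons randomised, took place in E. coli USO with a HIS3 reporter, site 19 bp from the promoter, over 48 hours at 37°C on M9-minus-histidine with 0.1 mM IPTG and 5 mM 3-AT.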
row,Variant,one-hybrid fitness for binding parS DNA
1,NLKV,≤ 0.2
2,PKDH,≤ 0.2
3,RAIL,≤ 0.2
4,EKNT,≤ 0.2
5,QEPA,≤ 0.2
6,CKMF,≤ 0.2
7,DGKT,≤ 0.2
8,QHVM,≤ 0.2
9,FLLS,≤ 0.2
10,RCNQ,≤ 0.2
11,KIDY,≤ 0.2
12,MDHW,≤ 0.2
13,CVMS,≤ 0.2
14,APCF,≤ 0.2
15,MYSC,≤ 0.2
16,QDHK,≤ 0.2
17,RSVY,0.37
18,ENLT,≤ 0.2
19,TVKW,≤ 0.2
20,YFLG,0.212
21,GNRR,≤ 0.2
22,NSHG,≤ 0.2
23,WYST,≤ 0.2
24,MEKC,≤ 0.2
25,DHLT,≤ 0.2

row,Variant,one-hybrid fitness for binding parS DNA
1,SMVT,≤ 0.2
2,TRAL,≤ 0.2
3,QAII,≤ 0.2
4,GPSI,≤ 0.2
5,KKRH,≤ 0.2
6,IRYL,≤ 0.2
7,MVAS,≤ 0.2
8,HHLN,≤ 0.2
9,LPLA,≤ 0.2
10,MKKN,≤ 0.2
11,RYTN,0.429
12,SWHW,≤ 0.2
13,IRPC,≤ 0.2
14,MKVG,≤ 0.2
15,TTVY,≤ 0.2
16,TDAL,≤ 0.2
17,PNDG,≤ 0.2
18,WITN,≤ 0.2
19,DQNR,≤ 0.2
20,STQR,≤ 0.2
21,RWTE,≤ 0.2
22,RKMF,≤ 0.2
23,AWMG,≤ 0.2
24,TKGA,≤ 0.2
25,QMQD,≤ 0.2

row,Variant,one-hybrid fitness for binding parS DNA
1,KITG,≤ 0.2
2,NTHN,≤ 0.2
3,QMMV,≤ 0.2
4,WLRA,≤ 0.2
5,RMHL,≤ 0.2
6,MVCP,≤ 0.2
7,MAQG,≤ 0.2
8,TEES,≤ 0.2
9,GKSV,≤ 0.2
10,QDEW,≤ 0.2
11,FCST,≤ 0.2
12,RYHP,≤ 0.2
13,NDRF,≤ 0.2
14,HRNM,≤ 0.2
15,VDHC,≤ 0.2
16,QMGL,≤ 0.2
17,RAWP,≤ 0.2
18,KFDS,≤ 0.2
19,KHWR,≤ 0.2
20,MLWS,≤ 0.2
21,FNVG,≤ 0.2
22,LVQY,≤ 0.2
23,LVGY,≤ 0.2
24,LLHV,≤ 0.2
25,PKTM,≤ 0.2

row,Variant,one-hybrid fitness for binding parS DNA
1,KRMY,≤ 0.2
2,ATDM,≤ 0.2
3,YKTP,≤ 0.2
4,RCME,≤ 0.2
5,PDCC,≤ 0.2
6,SDSD,≤ 0.2
7,CKSS,≤ 0.2
8,LPSW,≤ 0.2
9,NQRY,≤ 0.2
10,SPWS,≤ 0.2
11,TKMP,≤ 0.2
12,CISG,≤ 0.2
13,VIKY,≤ 0.2
14,LWRG,≤ 0.2
15,ATIM,≤ 0.2
16,NTVG,≤ 0.2
17,SSIR,≤ 0.2
18,KLDG,≤ 0.2
19,AIIC,≤ 0.2
20,DNLN,≤ 0.2
21,YWYG,≤ 0.2
22,IVTC,≤ 0.2
23,VAGE,≤ 0.2
24,ESRT,≤ 0.2
25,HMGY,≤ 0.2

row,Variant,one-hybrid fitness for binding parS DNA
1,PSNA,≤ 0.2
2,FWKR,≤ 0.2
3,NSRC,≤ 0.2
4,MLMG,≤ 0.2
5,VKLT,≤ 0.2
6,KLPW,≤ 0.2
7,VHPV,≤ 0.2
8,AVTY,≤ 0.2
9,GRIG,≤ 0.2
10,ATTL,≤ 0.2
11,KYCT,≤ 0.2
12,FMES,≤ 0.2
13,EGHP,0.233
14,TSLN,≤ 0.2
15,EIHG,≤ 0.2
16,QWGH,≤ 0.2
17,RPII,≤ 0.2
18,KGCG,≤ 0.2
19,ISTL,≤ 0.2
20,PIRF,≤ 0.2
21,TIWP,≤ 0.2
22,ESMD,≤ 0.2
23,LRPF,≤ 0.2
24,AMNS,≤ 0.2
25,GKSN,≤ 0.2

row,Variant,one-hybrid fitness for binding parS DNA
1,VRNS,≤ 0.2
2,WSYG,≤ 0.2
3,QYTL,≤ 0.2
4,HPFS,≤ 0.2
5,PISC,≤ 0.2
6,CHSV,≤ 0.2
7,RGDL,≤ 0.2
8,EYIC,≤ 0.2
9,STVN,≤ 0.2
10,QVSW,≤ 0.2
11,ANCA,≤ 0.2
12,CRML,≤ 0.2
13,WSWT,≤ 0.2
14,YSKD,≤ 0.2
15,RGTT,0.624
16,QMVD,≤ 0.2
17,QQCD,≤ 0.2
18,YSNF,≤ 0.2
19,RDLA,≤ 0.2
20,RYPG,0.545
21,PDWL,≤ 0.2
22,HEYG,≤ 0.2
23,RSYI,≤ 0.2
24,MTSS,≤ 0.2
25,LPHF,≤ 0.2

row,Variant,one-hybrid fitness for binding parS DNA
1,GSQN,≤ 0.2
2,PALN,≤ 0.2
3,YNCF,≤ 0.2
4,SVTN,≤ 0.2
5,ANNN,≤ 0.2
6,CHWS,≤ 0.2
7,CLMR,≤ 0.2
8,DTIL,≤ 0.2
9,PCAP,≤ 0.2
10,KHAS,≤ 0.2
11,YDHE,≤ 0.2
12,KIIC,≤ 0.2
13,RVRQ,≤ 0.2
14,AMFL,≤ 0.2
15,QRLP,≤ 0.2
16,MVPW,≤ 0.2
17,MRRL,≤ 0.2
18,KRNF,≤ 0.2
19,HIMY,≤ 0.2
20,YAWL,≤ 0.2
21,DTWR,≤ 0.2
22,VPSH,≤ 0.2
23,FVTT,≤ 0.2
24,NLAR,≤ 0.2
25,QGKI,≤ 0.2

row,Variant,one-hybrid fitness for binding parS DNA
1,MMMS,≤ 0.2
2,RMQG,1.01
3,EVHR,≤ 0.2
4,LHPD,≤ 0.2
5,PHQK,≤ 0.2
6,PKPM,≤ 0.2
7,TRDE,≤ 0.2
8,KQHS,≤ 0.2
9,NMYR,≤ 0.2
10,TIGV,≤ 0.2
11,PARN,≤ 0.2
12,LMKL,≤ 0.2
13,PDMT,≤ 0.2
14,KHLT,≤ 0.2
15,HQMR,≤ 0.2
16,IVRS,≤ 0.2
17,YAII,≤ 0.2
18,AIPS,≤ 0.2
19,EANY,≤ 0.2
20,IRKQ,≤ 0.2
